In this assay the target is non-receptor tyrosine kinase Src, native protein in brain lysates, PSD preparations, hippocampal neurons and … (rat, UniProt Q9WUD9). As to the kind of experiment: GST pull-down from PSD preparations, immunoblot.

B1: GST alone (other)
chain: not shown
notes: Negative control
Consider B1, for which the binding result is given as “no binding”.
